Measurements: paper PMC4336329 (PLoS ONE, 2015)
The whole screen tested about 310,000 compounds, of which about 14,000 (4.5%) showed an effect of 50% or more. The effect is printed as a negative number. Some of the results follow.

What follows are compounds tested against human ether-à-go-go-related gene (hERG) potassium channel (human, UniProt Q12809) (assay: primary screen, population patch clamp on CHO cells stably expressing hERG).
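Also: peak tail current of the secondary pulse compared with the same well before compound.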

human ether-à-go-go-related gene (hERG) potassium channel, sequence (Q12809 whole entry, looked up): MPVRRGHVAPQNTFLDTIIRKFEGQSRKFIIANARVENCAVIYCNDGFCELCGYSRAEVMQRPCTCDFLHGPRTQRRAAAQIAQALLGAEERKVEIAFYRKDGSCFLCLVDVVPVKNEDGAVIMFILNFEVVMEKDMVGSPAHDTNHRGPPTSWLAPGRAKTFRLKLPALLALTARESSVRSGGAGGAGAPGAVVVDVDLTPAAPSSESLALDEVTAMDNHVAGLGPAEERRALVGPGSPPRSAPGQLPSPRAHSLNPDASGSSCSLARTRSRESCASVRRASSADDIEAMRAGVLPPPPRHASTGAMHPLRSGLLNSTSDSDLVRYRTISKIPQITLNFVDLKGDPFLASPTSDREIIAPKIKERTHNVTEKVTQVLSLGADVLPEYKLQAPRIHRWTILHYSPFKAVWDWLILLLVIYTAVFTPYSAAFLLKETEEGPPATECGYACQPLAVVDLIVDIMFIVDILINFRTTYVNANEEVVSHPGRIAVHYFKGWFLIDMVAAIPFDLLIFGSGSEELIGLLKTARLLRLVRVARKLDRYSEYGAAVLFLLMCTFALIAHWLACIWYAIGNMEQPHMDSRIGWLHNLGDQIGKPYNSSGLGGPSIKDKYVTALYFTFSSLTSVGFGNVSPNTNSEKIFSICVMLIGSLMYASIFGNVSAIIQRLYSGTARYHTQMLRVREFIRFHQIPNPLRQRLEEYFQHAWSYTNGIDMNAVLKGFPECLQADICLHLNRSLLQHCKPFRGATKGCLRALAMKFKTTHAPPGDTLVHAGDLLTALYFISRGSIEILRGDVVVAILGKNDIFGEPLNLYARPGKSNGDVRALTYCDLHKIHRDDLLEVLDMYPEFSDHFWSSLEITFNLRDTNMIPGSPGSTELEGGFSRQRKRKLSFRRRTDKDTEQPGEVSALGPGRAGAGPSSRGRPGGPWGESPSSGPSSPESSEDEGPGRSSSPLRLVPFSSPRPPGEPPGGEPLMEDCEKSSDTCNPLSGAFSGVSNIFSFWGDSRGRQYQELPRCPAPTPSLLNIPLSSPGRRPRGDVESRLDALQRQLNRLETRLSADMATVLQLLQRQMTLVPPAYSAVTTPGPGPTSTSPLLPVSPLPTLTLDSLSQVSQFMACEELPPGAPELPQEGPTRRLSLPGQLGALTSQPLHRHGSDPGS

Point of comparison: `CCC/C(=C1/c2ccccc2C(=O)N1c1ccccc1)c1ccc2c(c1)OCO2`, “hERG current change (%, negative = inhibition) at 10uM” value 14.5%. Against it:
- O=C(Cn1nnc2ccccc21)c1ccc(Cl)cc1 — lower, -4.9%
- Cc1c(NS(=O)(=O)c2ccc3c(c2)Cc2ccccc2-3)c(=O)n(-c2ccccc2)n1C — higher, 14.6%
- CC(C)(C)C(=O)Nc1ccc(C(=O)NNC(=O)c2ccccc2)cc1 — higher, 15.4%
- Cc1cccc(C(=O)OCC(=O)Nc2sc3c(c2C#N)CCC3)c1 — higher, 16.4%
- COc1nc(-c2ccccc2)nc(C)c1CC(=O)O — lower, 4.66%
- O=C(NCc1ccccn1)c1ccc(Cl)c(S(=O)(=O)NCc2ccccc2)c1 — lower, -22.8%
- O=C(CCCN1C(=O)/C(=C/c2cccc(Br)c2)SC1=S)N1CCOCC1 — lower, 9.86%
- CC1(C)CC(=O)C2=C(C1)N(CCN1CCOCC1)C1=C(C(=O)CC(C)(C)C1)C2c1cccc(F)c1 — lower, -33.5%
- O=S1(=O)N=C(c2ccccc2)c2ccccc21 — lower, 9.74%
- Cc1csc(NC(=O)c2cc(C)oc2C)n1 — lower, -0.00252%
- Cc1ccnc(SCc2cc(=O)c(OC(=O)c3cc([N+](=O)[O-])ccc3Cl)co2)n1 — lower, -5.61%
- O=C(Nc1sc2c(c1C(=O)O)CCCCC2)c1ccco1 — lower, 4.36%
- Cc1nn(C)c(C(=O)NNC(=S)Nc2ccc(F)cc2)c1[N+](=O)[O-] — lower, 9.16%
- O=C(O)c1cccc(C(=O)Cc2ccccc2)c1 — higher, 18.7%
- COc1ccc(CNC(=O)CN=C2NC(=O)C(c3ccccc3)(c3ccccc3)N2)cc1 — lower, 8.59%
- Cc1cc2c(cc1S(=O)(=O)N1CCN(c3ccccc3F)CC1)OCC(=O)N2 — higher, 21.5%
- O=c1cc(CNc2ccc(Br)cc2)nc2sccn12 — lower, -30.2%
- O=S(=O)(c1ccc(Cl)c(NC(=S)Nc2cccc(O)c2)c1)N1CCOCC1 — lower, -1.85%
- CCO/C=N/c1c(C#N)c(CC#N)nn1-c1ccccc1 — lower, -8.25%
- O=C(CSc1nnc(CNC(=O)c2cccs2)o1)Nc1ccc(Br)cc1 — lower, 2.46%
- COc1ccccc1N1CCN(C(=O)CSc2nc3ncnc(N)c3[nH]2)CC1 — higher, 21.3%
- COc1cccc(C(=O)O/N=C(\N)c2ccncc2)c1 — lower, 7.52%
- CCc1cccc(CC)c1N(COC)C(=O)Cn1ccccc1=N.Cl — lower, -1.37%
- CCCCn1c(SCC(=O)NC2CC(C)(C)NC(C)(C)C2)nc2cc(S(N)(=O)=O)ccc21.Cl — lower, -0.109%
- Cc1ccc2cc(-c3noc(C4CCCO4)n3)c(=O)[nH]c2c1 (stereo not shown) — lower, 1.17%
- COc1ccc(C(c2sc3ncnn3c2O)N2CCN(c3ccccc3F)CC2)cc1OC (stereo not shown) — lower, -29.6%
- CCc1nc(C)cn1S(=O)(=O)c1cc(C)c(OC)c(C)c1C — lower, -24.6%
- C=CCOc1ccc(/C=N/NC(C)=O)cc1OCC — lower, -0.233%
- Cc1ccc(S(=O)(=O)Nc2ccc(C(N)=O)cc2)cc1[N+](=O)[O-] — lower, 1.17%
- Cc1cccc(S(=O)(=O)Nc2ccncc2)c1 — higher, 22.1%
- Cc1ccc(NC(=O)Nc2ccc(Cl)cc2)c(Br)c1 — lower, 12.2%
- Clc1nc(N2CCOCC2)ncc1Br — lower, 14.2%
- CCC(C)c1ccccc1N1CC(C(=O)Nc2ccccc2N2CCCC2)CC1=O (stereo not shown) — lower, -0.559%
- O=C(CN1C(=O)C2CC=CCC2C1=O)OCC(=O)c1ccc(Cl)c([N+](=O)[O-])c1 (stereo not shown) — lower, -3.83%
- CCCCN(CCCC)CCNC(=O)CNC(=O)c1cccs1 — lower, 6.83%
- O=C(O)CSC(=S)N1CCCCC1 — lower, 7.25%
- COc1cccc(C(=O)N2CCC(C(=O)NCc3ccc(C)cc3)CC2)c1 — lower, -36.3%
- CCOC(=O)C(=O)NCC(c1cccs1)S(=O)(=O)c1ccc(F)cc1 (stereo not shown) — lower, -5.48%
- CCn1ccnc1CN1CCN(CC=C(C)C)C(CCO)C1 (stereo not shown) — higher, 17.3%
- Cc1ccccc1C(=O)NNC(=O)C1CCCN(c2ncccn2)C1 (stereo not shown) — lower, 1.65%
- c1ccc(-c2nnc(-c3ccco3)n2-c2ccccc2)cc1 — lower, -5.09%
- Cc1ccc(SC(C)C(=O)N2CCC(C(N)=O)CC2)cc1 (stereo not shown) — higher, 20.1%
- COc1ccc(NC(=O)Cn2nnc(C(=O)NCCc3ccc(OC)c(OC)c3)c2N)c(OC)c1 — lower, 11.6%
- CCO/C(C)=C1\C(=O)Nc2ccccc21 — lower, 9.79%
- CC(C)n1c(O)c(N=NC(=O)Cn2ccc(C(F)(F)F)n2)c2ccccc21 — lower, 2.32%
- COc1ccccc1N1CCN(C2CCCN(C(=O)CN3CCCCC3=O)C2)CC1 (stereo not shown) — lower, 8.94%
- CCc1ccc(S(=O)(=O)Nc2ccc(-c3ccc4nncn4n3)cc2)s1 — lower, -6.08%
- CCCn1c(=O)c2c(nc3n2CCN3Cc2ccco2)n(C)c1=O — lower, -5.94%
- Cn1cnc2c(=O)[nH]cc([N+](=O)[O-])c21.O — higher, 15.8%
- Cc1cc(=O)oc2cc(OC(C)C(=O)NCC3CCC(C(=O)O)CC3)c(Cl)cc12 (stereo not shown) — lower, 8.95%
- CCCc1nnc(SCC(=O)N2CCCC(C)C2)n1CCOC (stereo not shown) — higher, 16.5%
- Cc1cc(C)n2nc(-c3cccc(Br)c3)cc2n1 — lower, 5.31%
- N#CCCN(C(=O)Nc1ccccc1)c1ccccc1 — lower, 13.7%
- Cc1nc(SC2CC(=O)N(c3cc(Cl)cc(Cl)c3)C2=O)nc2c1CCCC2 (stereo not shown) — lower, 2.14%
- CC1=CC2=NC(=O)CC(C)(C(=O)N(CC(=O)NC3CCCC3)c3cc(C)cc(C)c3)N2C=C1 (stereo not shown) — higher, 17.9%
- CCCCC(=O)Nc1cccc2c1C(=O)N(c1ccccc1)C2=O — lower, -12.4%
- Cc1c(C(=O)OCC(=O)N2CC(=O)Nc3ccccc32)oc2ccc(Br)cc12 — lower, -3.05%
